# Laboratory results from publication PMC9911399, “Two distinct binding modes provide the RNA-binding protein RbFox with extraordinary sequence specificity”.
# Substitutions are numbered along the chain they refer to; changes in the protein carry UniProt numbers. The list shows a part of the results.
# T1: RBFOX1 RRM RbFoxmut (Fox-RRM*) (Homo sapiens, UniProt Q9NWB1 109-208, R118D;E147R;N151S;E152T)
# T1 sequence: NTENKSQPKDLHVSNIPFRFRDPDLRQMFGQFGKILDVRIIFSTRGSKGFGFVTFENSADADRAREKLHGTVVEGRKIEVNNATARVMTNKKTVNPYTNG
# B1: UGAAAGG (DNA:RNA)
# RNA: GGGAGACCGGAAUUCAGAUUGUCCUGAAAGGUUAAAUCCCGUCGUAGCCACCA
# DNA 1: CAATCTGAATTCCGGTCTCCC
# DNA 2: TGGTGGCTACGACGGGATT
# B2: CUGAGGA (DNA:RNA)
# RNA: B1 RNA with U25C, G26U, A27G, A29G, G31A
# DNA 1: CAATCTGAATTCCGGTCTCCC
# DNA 2: TGGTGGCTACGACGGGATT
# B3: GUCGGAU (DNA:RNA)
# RNA: GGGAGACCGGAAUUCAGAUUGUCCGUCGGAUUUAAAUCCCGUCGUAGCCACCA
# DNA 1: CAATCTGAATTCCGGTCTCCC
# DNA 2: TGGTGGCTACGACGGGATT
# B4: UAAGUGA (DNA:RNA)
# RNA: B1 RNA with G26A, A28G, A29U, G31A
# DNA 1: CAATCTGAATTCCGGTCTCCC
# DNA 2: TGGTGGCTACGACGGGATT
# B5: AGGCUUA (DNA:RNA)
# RNA: B1 RNA with U25A, A27G, A28C, A29U, G30U, G31A
# DNA 1: CAATCTGAATTCCGGTCTCCC
# DNA 2: TGGTGGCTACGACGGGATT
# B6: CCCUAAG (DNA:RNA)
# RNA: B3 RNA with G25C, U26C, G28U, G29A, U31G
# DNA 1: CAATCTGAATTCCGGTCTCCC
# DNA 2: TGGTGGCTACGACGGGATT
# B7: CGGGUCG (DNA:RNA)
# RNA: B1 RNA with U25C, A27G, A28G, A29U, G30C
# DNA 1: CAATCTGAATTCCGGTCTCCC
# DNA 2: TGGTGGCTACGACGGGATT
# B8: GCGGUGC (DNA:RNA)
# RNA: B3 RNA with U26C, C27G, G29U, A30G, U31C
# DNA 1: CAATCTGAATTCCGGTCTCCC
# DNA 2: TGGTGGCTACGACGGGATT
# B9: UAUGUAA (DNA:RNA)
# RNA: B3 RNA with G25U, U26A, C27U, G29U, U31A
# DNA 1: CAATCTGAATTCCGGTCTCCC
# DNA 2: TGGTGGCTACGACGGGATT
# B10: CGAUGUA (DNA:RNA)
# RNA: B1 RNA with U25C, A28U, A29G, G30U, G31A
# DNA 1: CAATCTGAATTCCGGTCTCCC
# DNA 2: TGGTGGCTACGACGGGATT
# B11: CGGCUGA (DNA:RNA)
# RNA: B1 RNA with U25C, A27G, A28C, A29U, G31A
# DNA 1: CAATCTGAATTCCGGTCTCCC
# DNA 2: TGGTGGCTACGACGGGATT
# B12: AUCGCAA (DNA:RNA)
# RNA: B3 RNA with G25A, G29C, U31A
# DNA 1: CAATCTGAATTCCGGTCTCCC
# DNA 2: TGGTGGCTACGACGGGATT
# B13: GUGAUUA (DNA:RNA)
# RNA: B3 RNA with C27G, G28A, G29U, A30U, U31A
# DNA 1: CAATCTGAATTCCGGTCTCCC
# DNA 2: TGGTGGCTACGACGGGATT
# B14: ACACAAA (DNA:RNA)
# RNA: B1 RNA with U25A, G26C, A28C, G30A, G31A
# DNA 1: CAATCTGAATTCCGGTCTCCC
# DNA 2: TGGTGGCTACGACGGGATT
# B15: UCGGAUG (DNA:RNA)
# RNA: B1 RNA with G26C, A27G, A28G, G30U
# DNA 1: CAATCTGAATTCCGGTCTCCC
# DNA 2: TGGTGGCTACGACGGGATT
# B16: AGAUGCA (DNA:RNA)
# RNA: B1 RNA with U25A, A28U, A29G, G30C, G31A
# DNA 1: CAATCTGAATTCCGGTCTCCC
# DNA 2: TGGTGGCTACGACGGGATT
# B17: CAAAUCU (DNA:RNA)
# RNA: B1 RNA with U25C, G26A, A29U, G30C, G31U
# DNA 1: CAATCTGAATTCCGGTCTCCC
# DNA 2: TGGTGGCTACGACGGGATT
# B18: AUUCGGU (DNA:RNA)
# RNA: B3 RNA with G25A, C27U, G28C, A30G
# DNA 1: CAATCTGAATTCCGGTCTCCC
# DNA 2: TGGTGGCTACGACGGGATT
# B19: UCAGGCA (DNA:RNA)
# RNA: B3 RNA with G25U, U26C, C27A, A30C, U31A
# DNA 1: CAATCTGAATTCCGGTCTCCC
# DNA 2: TGGTGGCTACGACGGGATT
# B20: UCAAAUA (DNA:RNA)
# RNA: B1 RNA with G26C, G30U, G31A
# DNA 1: CAATCTGAATTCCGGTCTCCC
# DNA 2: TGGTGGCTACGACGGGATT
# B21: GAUAUUG (DNA:RNA)
# RNA: B1 RNA with U25G, G26A, A27U, A29U, G30U
# DNA 1: CAATCTGAATTCCGGTCTCCC
# DNA 2: TGGTGGCTACGACGGGATT
# B22: UCACAAA (DNA:RNA)
# RNA: B1 RNA with G26C, A28C, G30A, G31A
# DNA 1: CAATCTGAATTCCGGTCTCCC
# DNA 2: TGGTGGCTACGACGGGATT
# B23: UUAGAUG (DNA:RNA)
# RNA: B1 RNA with G26U, A28G, G30U
# DNA 1: CAATCTGAATTCCGGTCTCCC
# DNA 2: TGGTGGCTACGACGGGATT
# B24: CAAGACG (DNA:RNA)
# RNA: B1 RNA with U25C, G26A, A28G, G30C
# DNA 1: CAATCTGAATTCCGGTCTCCC
# DNA 2: TGGTGGCTACGACGGGATT
# B25: CUGGAAA (DNA:RNA)
# RNA: B3 RNA with G25C, C27G, G29A, U31A
# DNA 1: CAATCTGAATTCCGGTCTCCC
# DNA 2: TGGTGGCTACGACGGGATT
# B26: CAGAAAU (DNA:RNA)
# RNA: B3 RNA with G25C, U26A, C27G, G28A, G29A
# DNA 1: CAATCTGAATTCCGGTCTCCC
# DNA 2: TGGTGGCTACGACGGGATT
# B27: GGCCUGC (DNA:RNA)
# RNA: B3 RNA with U26G, G28C, G29U, A30G, U31C
# DNA 1: CAATCTGAATTCCGGTCTCCC
# DNA 2: TGGTGGCTACGACGGGATT
# B28: CCGCUAA (DNA:RNA)
# RNA: B3 RNA with G25C, U26C, C27G, G28C, G29U, U31A
# DNA 1: CAATCTGAATTCCGGTCTCCC
# DNA 2: TGGTGGCTACGACGGGATT
# B29: CAUGUAC (DNA:RNA)
# RNA: B3 RNA with G25C, U26A, C27U, G29U, U31C
# DNA 1: CAATCTGAATTCCGGTCTCCC
# DNA 2: TGGTGGCTACGACGGGATT
# B30: AACAUGC (DNA:RNA)
# RNA: B1 RNA with U25A, G26A, A27C, A29U, G31C
# DNA 1: CAATCTGAATTCCGGTCTCCC
# DNA 2: TGGTGGCTACGACGGGATT
# B31: GCCAGGU (DNA:RNA)
# RNA: B3 RNA with U26C, G28A, A30G
# DNA 1: CAATCTGAATTCCGGTCTCCC
# DNA 2: TGGTGGCTACGACGGGATT
# Target: T1, RBFOX1 RRM RbFoxmut (Fox-RRM*)
# Assay: EMSA; HiTS-Eq, 1 nM pool, 10 min; buffer printed only for the single-RNA assays: 10 mM Tris pH 7.5, 150 mM NaCl, 3.4 mM EDTA, 0.001% NP-40, 30 C
# Conditions: tags: His6 N-terminal (pET28a); label: 5' 32P
# Method in brief: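 Purified RbFox RRM (wild type or mutant) was equilibrated for 10 min in 50 µL with 1 nM of a 5′-radiolabelled pool of RNA with 7 randomized nucleotides, its flanks annealed to DNA oligonucleotides, across increasing protein concentrations. Free RNA was separated by 8% native PAGE, excised, reverse-transcribed, PCR-barcoded and sequenced on an Illumina HiSeq 2500. Relative association constants came from read-count changes of each variant against the control reaction, normalised to the cognate motif.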
row,Binder,binding signal
1,B1,0.032 KA relative to UGCAUGU
2,B2,0.0696 KA relative to UGCAUGU
3,B3,0.0802 KA relative to UGCAUGU
4,B4,0.0771 KA relative to UGCAUGU
5,B5,0.133 KA relative to UGCAUGU
6,B6,0.076 KA relative to UGCAUGU
7,B7,0.259 KA relative to UGCAUGU
8,B8,0.102 KA relative to UGCAUGU
9,B9,0.0863 KA relative to UGCAUGU
10,B10,0.202 KA relative to UGCAUGU
11,B11,0.126 KA relative to UGCAUGU
12,B12,0.0865 KA relative to UGCAUGU
13,B13,0.138 KA relative to UGCAUGU
14,B14,0.0812 KA relative to UGCAUGU
15,B15,0.119 KA relative to UGCAUGU
16,B16,0.152 KA relative to UGCAUGU

row,Binder,binding signal
1,B17,0.0525 KA relative to UGCAUGU
2,B18,0.108 KA relative to UGCAUGU
3,B19,0.108 KA relative to UGCAUGU
4,B20,0.117 KA relative to UGCAUGU
5,B21,0.127 KA relative to UGCAUGU
6,B22,0.0764 KA relative to UGCAUGU
7,B23,0.103 KA relative to UGCAUGU
8,B24,0.0698 KA relative to UGCAUGU
9,B25,0.0921 KA relative to UGCAUGU
10,B26,0.089 KA relative to UGCAUGU
11,B27,0.131 KA relative to UGCAUGU
12,B28,0.0851 KA relative to UGCAUGU
13,B29,0.158 KA relative to UGCAUGU
14,B30,0.0713 KA relative to UGCAUGU
15,B31,0.0955 KA relative to UGCAUGU
